The test system of one test is SU-DHL-2 cells. Briefly: In vitro anti-proliferative assay (CCK8), SU-DHL-2.
The test system of test [1] is WSU-DLCL-2 cells. Briefly: Cell cycle assay (propidium iodide flow cytometry). As to conditions: 72 h. The test is classed as cell-based. On the procedure:
In addition to studying the effects of compounds 27f and 39f on cell apoptosis, we also explored their effects on cell cycle progression by flow cytometry. […] WSU-DLCL-2 cells were treated with compounds 27f and 39f at 1 µM and 5 µM for 72 h, respectively.
After treatment, cells were collected and fixed with 70% pre-cold ethanol in PBS and stored at −20 °C overnight. Then washed the cells with PBS twice, and incubated with 100 µg/ml RNase A at 37 °C for 1 h, stained with propidium iodide for 30 min avoid light at room temperature.

A further test has as its target HDAC1 (Homo sapiens, UniProt Q13547). Kind of test: biochemical.
The test system of another test is HEL cells. Kind of test: In vitro anti-proliferative assay (CCK8), HEL. The note with it: Homo sapiens, 72 h, read-out: IC50 HEL.
For another test, the target named is T1, HDAC6 (Homo sapiens, UniProt Q9UBN7).
T1 sequence (Q9UBN7 1-1215): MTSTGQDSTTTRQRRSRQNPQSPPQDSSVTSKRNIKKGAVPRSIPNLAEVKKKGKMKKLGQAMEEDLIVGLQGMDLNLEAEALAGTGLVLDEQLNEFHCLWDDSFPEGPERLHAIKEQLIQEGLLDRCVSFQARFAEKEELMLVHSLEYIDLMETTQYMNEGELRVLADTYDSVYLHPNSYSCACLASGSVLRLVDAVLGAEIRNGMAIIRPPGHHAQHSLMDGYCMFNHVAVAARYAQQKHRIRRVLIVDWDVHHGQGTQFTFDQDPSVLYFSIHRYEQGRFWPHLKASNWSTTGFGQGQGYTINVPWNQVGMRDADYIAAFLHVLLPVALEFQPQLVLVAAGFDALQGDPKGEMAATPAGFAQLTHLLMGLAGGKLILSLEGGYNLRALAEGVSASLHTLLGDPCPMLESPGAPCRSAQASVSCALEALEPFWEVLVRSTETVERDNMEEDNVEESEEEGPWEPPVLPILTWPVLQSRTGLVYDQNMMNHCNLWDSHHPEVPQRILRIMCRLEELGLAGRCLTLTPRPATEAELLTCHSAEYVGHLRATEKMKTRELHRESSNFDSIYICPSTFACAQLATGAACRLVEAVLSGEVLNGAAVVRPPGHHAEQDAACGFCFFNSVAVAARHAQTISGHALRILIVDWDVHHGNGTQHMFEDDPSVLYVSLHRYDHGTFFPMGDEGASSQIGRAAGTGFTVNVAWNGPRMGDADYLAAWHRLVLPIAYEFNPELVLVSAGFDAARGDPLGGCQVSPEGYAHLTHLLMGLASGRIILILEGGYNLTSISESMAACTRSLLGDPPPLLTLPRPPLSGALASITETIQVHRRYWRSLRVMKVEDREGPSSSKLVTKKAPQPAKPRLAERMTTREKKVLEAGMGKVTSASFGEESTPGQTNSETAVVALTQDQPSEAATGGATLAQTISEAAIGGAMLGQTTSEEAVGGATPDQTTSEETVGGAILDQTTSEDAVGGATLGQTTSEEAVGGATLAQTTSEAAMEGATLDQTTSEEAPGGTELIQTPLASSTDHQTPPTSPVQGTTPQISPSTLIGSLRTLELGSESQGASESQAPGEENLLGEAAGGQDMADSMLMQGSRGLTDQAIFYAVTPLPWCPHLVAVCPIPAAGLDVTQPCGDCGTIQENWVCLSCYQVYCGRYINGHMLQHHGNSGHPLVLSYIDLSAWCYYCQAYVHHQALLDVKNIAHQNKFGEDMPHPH
Kind of test: biochemical.

Test [2] deals with WSU-DLCL-2 cells. Kind of test: In vitro anti-proliferative assay (CCK8), WSU-DLCL-2. The note with it: Homo sapiens, WSUDLCL2, 72 h, read-out: IC50 WSU-DLCL-2.
Another test deals with K562 cells. Kind of test: In vitro anti-proliferative assay (CCK8), K562. As to conditions: Homo sapiens, K562, 72 h, read-out: IC50 K562.
Another test deals with MV4-11 cells. Briefly: In vitro anti-proliferative assay (CCK8), MV4-11.

SMILES strings stand for the structures. Like-named read-outs stand apart in the source and are kept apart here.

HDAC1, sequence (Q13547 whole entry): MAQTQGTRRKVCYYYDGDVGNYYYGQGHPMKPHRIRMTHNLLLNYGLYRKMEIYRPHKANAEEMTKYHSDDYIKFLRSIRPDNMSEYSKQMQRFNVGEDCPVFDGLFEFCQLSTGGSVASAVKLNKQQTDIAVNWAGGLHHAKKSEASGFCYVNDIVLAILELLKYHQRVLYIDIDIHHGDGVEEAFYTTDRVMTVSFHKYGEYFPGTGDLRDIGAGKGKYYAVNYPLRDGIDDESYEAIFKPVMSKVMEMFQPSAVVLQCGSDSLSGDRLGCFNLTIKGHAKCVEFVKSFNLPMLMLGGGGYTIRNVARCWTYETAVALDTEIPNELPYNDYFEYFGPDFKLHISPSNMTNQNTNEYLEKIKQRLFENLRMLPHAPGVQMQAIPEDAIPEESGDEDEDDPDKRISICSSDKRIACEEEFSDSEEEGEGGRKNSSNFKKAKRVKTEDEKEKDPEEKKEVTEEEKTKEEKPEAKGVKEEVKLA

As to `C=C[C@]1(C)CC[C@@H](C(=C)Cn2cccn2)C[C@H]1C(=C)CN1CCN(C(=O)CCCCCCC(=O)NO)CC1` [Compound 39f, 8–(4-(2-((1R,2S,5R)-5–(3-(1H-pyrazol-1-yl)prop-1-en-2-yl)-2-methyl-2-vinylcyclohexyl)allyl)piperazin-1-yl)-N-hydroxy-8-oxooctanamide], the IC50 (in general, the midpoint of a concentration-inhibition curve) with SU-DHL-2 cells (Homo sapiens, SU-DHL-2, 72 h, read-out: IC50 SU-DHL-2, lymphoma cell line, 72 h, CCK8) was less than 1550 nM; in the test on SU-DHL-2 cells (read-out: IC50 SU-DHL-2, lymphoma cell line, 72 h, CCK8), 1410 ± 40 nM; against HDAC1 it was 9 ± 4 nM; with HEL cells, 2010 ± 270 nM; against HDAC6, 14 ± 1 nM; in the test with WSU-DLCL-2 cells [2], 1590 ± 420 nM. Also, the IC50 in the test on K562 cells is 3670 ± 500 nM; in the test with MV4-11 cells (Homo sapiens, MV4-11, 72 h, read-out: IC50 MV4-11, leukaemia cell line, 72 h, CCK8), less than 1650 nM; in the test with MV4-11 cells (read-out: IC50 MV4-11, leukaemia cell line, 72 h, CCK8), 1000 ± 50 nM. Besides, the “cell proportion of G1 phase” value in the test on WSU-DLCL-2 cells [1] (1 μM) worked out at 54.55%; in the test on WSU-DLCL-2 cells [1] (5 μM) it was 70.18%. Besides, the “cell proportion of G2 phase” value stood at 7.07% in the test with WSU-DLCL-2 cells [1] (1 μM) and 1.31% with WSU-DLCL-2 cells [1] (5 μM). Moreover, the “cell proportion of S phase” value in the test with WSU-DLCL-2 cells [1] (1 μM) is reported as 37.21%; in the test with WSU-DLCL-2 cells [1] (5 μM) it was 27.83%.

These data come from publication PMC10075517, “Design, synthesis and biological evaluation of novel histone deacetylase (HDAC) inhibitors derived from β-elemene scaffold” (Journal of Enzyme Inhibition and Medicinal Chemistry, 2023).
